Test results published in PubChem BioAssay AID328 (DTP/NCI, 2004).
Toxic doses and inconclusive results are not listed. Not every entry of the source has a single result; some have several. The other results are left out here. There may be further records. Values given together differ, and nothing given here explains why; they may come from other doses, times, organisms or constructs than stated.

Test system: BDF1 mice, P388 leukemia ip, median survival T/C
Test: NCI In Vivo Anticancer Drug Screen. Data for tumor model P388 Leukemia (intraperitoneal) in B6D2F1 (BDF1) mice
Conditions: endpoint: median survival time, higher = longer survival
Summary of the method: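 Survival ratio, drug arm over vehicle arm, in mice with a transplanted tumour.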

[1] = dose: 0.25 mg/kg/injection, schedule: Q01DX009 (ip), vehicle: water

In the case of NC(CSCc1ccccc1)CSCc1ccccc1, the T/C (dose: 3.12 mg/kg/injection, schedule: Q04DX003 (ip), vehicle: saline) was 87 % of control, 103 % of control, 155 % of control.
In the case of O=C(NP(=O)(N1CC1)N1CC1)c1cc(I)ccc1I, the T/C (dose: 2.0 mg/kg/injection, schedule: Q01DX009 (ip), vehicle: saline) was 101 % of control and 191 % of control and the T/C (dose: 64.0 mg/kg/injection, schedule: Q01DX009 (ip), vehicle: saline) was 87 % of control and 270 % of control.
For CCC1(O)CC(OC2CC(N(C)C)C(OC3CC4OC5CC(=O)C(C)OC5OC4C(C)O3)C(C)O2)c2c(cc3c(c2O)C(=O)c2c(O)ccc(O)c2C3=O)C1C(=O)OC (stereo unspecified), the T/C (dose: 3.0 mg/kg/injection, schedule: Q01DX001 (ip), vehicle: saline) was 113 % of control, 150 % of control, 160 % of control and the T/C (dose: 6.0 mg/kg/injection, schedule: Q01DX001 (ip), vehicle: saline) was 113 % of control, 150 % of control, 180 % of control.
CCCCOc1ccc(C(=O)N/N=C(\C)[C@]2(O)Cc3c(O)c4c(c(O)c3[C@@H](OC3CC(N)C(O)C(C)O3)C2)C(=O)c2c(OC)cccc2C4=O)cc1 (stereo partly specified) was tested, and the T/C [1] was 96 % of control and 153 % of control and the T/C (dose: 0.5 mg/kg/injection, schedule: Q01DX009 (ip), vehicle: water) was 114 % of control and 154 % of control.
In the case of CC[C@]1(O)C[C@H]2CN(CCc3c([nH]c4ccccc34)[C@@](C(=O)OC)(c3cc4c(cc3OC)N(C=O)[C@H]3[C@@](O)(C(=O)OC)[C@H](OC(C)=O)[C@]5(CC)C=CCN6CC[C@]43[C@@H]65)C2)C1, the T/C (dose: 2.0 mg/kg/injection, schedule: Q04DX003 (ip), vehicle: water) was 100 % of control and 168 % of control.
COc1cc2c[n+](C)c3c4cc(OC)c(OC)cc4ccc3c2cc1OC was tested, and the T/C (dose: 200.0 mg/kg/injection, schedule: Q04DX003 (ip), vehicle: water) was 116 % of control and 174 % of control.
For COc1cccc2c1C(=O)c1c(O)c3c(c(O)c1C2=O)C[C@@](O)(/C(C)=N/NC(=O)c1ccc(Cl)cc1)C[C@@H]3OC1CC(N)C(O)C(C)O1 (stereo partly specified), the T/C [1] was 115 % of control and 163 % of control.
In the case of COc1cc(O)c2c(c1)C(=O)c1cc3c(c(O)c1C2=O)C(OC1OC(C)C(O)C(O)C1OC)C(OC)C(C)(O)C3=O (stereo unspecified), the T/C (dose: 150.0 mg/kg/injection, schedule: Q01DX010 (ip), vehicle: saline) was 90 % of control, 116 % of control, 155 % of control.
